First the molecules themselves.
B1: CPEB3 Ribozyme (parent)
chain: UAACAGGGGGCCACAGCAGAAGCGUUCACGUCGCAGCCCCUGUCAGAUUCUGGUGAAUCUGCGAAUUCUGCUGUAUAUCUC

Read counts are not given, so values of variants with three or more changes are uncertain.

This data set covers variants of B1. The data set is described as follows: self-cleavage, relative activity (ratio to wild type); higher = more cleavage; in vitro, sequencing. A digest of the protocol: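 Libraries of CPEB3 self-cleaving ribozyme mutants came from rounds of error-prone PCR and carried barcodes, which DNA sequencing matched to variants. In vitro transcription used T7 RNA polymerase at 37°C for 5 hours, with a further 15 min in DNase I before EDTA stopped the reaction; the ribozymes cleaved during both steps. The RNA was reverse transcribed with template switching and sequenced on Illumina. Relative activity is the cleaved/total read fraction of a variant divided by that of the unmutated ribozyme, averaged over three batches with at least 5 reads.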
For UAACAGGGGGCCACAGCAGGAGCGUUCACGUCGCAGCCCCUGUCAGAUUCUGGUGAUUCUGCGAAUUGUGCUGUAUAUCUC, the self-cleavage was determined as 0.14.

Consider UAACAGGGGGCCACAGCAGGAGCGUUCACGUCGCAGCCCCUGUCAGAUUCUGGUGGAUCUGCAAAUUCUCCUGUAUUUCUC, for which the self-cleavage came out at 0.18. With UAACAGGGGGCCACAGCAGGAGCGUUCACGUCGCAGCCCCUGUCAGAUUCUGGUGAUUCUGCGUAUUAUGCUGUAUAUCUC the figure was 0.14.

Consider UAACAGGGGGCCACAGCAGGAGCGUUCACGUCGCAGCCCCUGUCAGAUUCUGGUGGAUCUGCGGUUUCUGCUGUAUAUCUC, for which the self-cleavage is 0.16. With UAACAGGGGGCCACAGCAGGAGCGUUCACGUCGCAGCCCCUGUCAGAUUCUGGUGAAUCUGCGAGUUCUGCUGUACAUCUC the figure was 0.32; with UAACAGGGGGCCACAGCAGGAGCGUUCACGUCGCAGCCCCUGUCGGAUUCUGAUGAAUCCGCGAAUUCUGCUGUAUAUCUC, 1.09. For UAACAGGGGGCCACAGCAGGAGCGUUCACGUCGCAGCCCCUGUCAGAUUCUGGUGAAUCUGCGGAUUCUGCUGUAUAUCCC, the self-cleavage came out at 0.73. With UAACAGGGGGCCACAGCAGGAGCGUUCACGUCGCAGCCCCUGUCAGAUUCUGGUGAGUCUGCGAAUUCCGCUGUAUAUCUC the figure was 0.33. For UAACAGGGGGCCACAGCAGGAGCGUUCACGUCGCAGCCCCUGUCUGGUUCUGGUGAAUCUGCGAAUUCUGCUGUAUAUCUC, the self-cleavage is 0.18. With UAACAGGGGGCCACAGCAGGAGCGUUCACGUCGCAGCCCCUGUCAGAUUCUGGUGGGUCUGCGAAUUCUGCUGUAUAUCUC the figure was 0.3; with UAACAGGGGGCCACAGCAGGAGCGUUCACGUCGCAGCCCCUGUCAGAUUCUGGUGAGUCUGCGAACUCUGCUGUAUAUCUC, 0.3; with UAACAGGGGGCCACAGCAGGAGCGUUCACGUCGCAGCCCCUGUCAGAUUCUGGUGAAUCUGCGGAUUCUGCUGAAUAUCUC, 0.54. With UAACAGGGGGCCACAGCAGGAGCGUUCACGUCGCAGCCCCUGUCAGAUUCUGGUGUAUCUGCGAAUUCUGGUGUAUAUCUC the figure was 0.09; with UAACAGGGGGCCACAGCAGGAGCGUUCACGUCGCAGCCCCUGUCAGAUUCUGGUGGAUCUGCGAAUUCUGCUGUAUAUCCC, 0.81.

Turning to UAACAGGGGGCCACAGCAGGAGCGUUCACGUCGCAGCCCCUGUCAGAUUCUGGUGAAUCUGCGAGUUCUGCUGUAUACCUC, the self-cleavage came out at 0.22. With UAACAGGGGGCCACAGCAGGAGCGUUCACGUCGCAGCCCCUGUCUGAUUCUGGUGAAUCUGCGAAAUCUGCUGUAUAUCUC the figure was 0.24; with UAACAGGGGGCCACAGCAGGAGCGUUCACGUCGCAGCCCCUGUCUGAUACUGGUGAAUCUGCGAAUUCUGCUGUAUAUCUC, 0.28; with UAACAGGGGGCCACAGCAGGAGCGUUCACGUCGCAGCCCCUGUCAGUUUCUGGUGAUUCAGCGAAUUCUGCUGUAUAUCUC, 0.05. As for UAACAGGGGGCCACAGCAGGAGCGUUCACGUCGCAGCCCCUGUCAGGUUCUGGUGAAUCUGCGAAUUCUGCUGCUUAUCUC, the self-cleavage was 1.22. As to UAACAGGGGGCCACAGCAGGAGCGUUCACGUCGCAGCCCCUGUCAGAUUCUGGUGAAUCUGCGACUUCUGCAGUAUAUCUC, the self-cleavage worked out at 0.07. With UAACAGGGGGCCACAGCAGGAGCGUUCACGUCGCAGCCCCUGUCAGAUUCUGGUGGAUCAGCGAAUUCUGCUGUAUAUCUC the figure was 0.47. With UAACAGGGGGCCACAGCAGGAGCGUUCACGUCGCAGCCCCUGUCGGAUUCUGGUGGAUCAGCGAAUUCUGCUGUAUAUCUC the figure was 0.07. With UAACAGGGGGCCACAGCAGGAGCGUUCACGUCGCAGCCCCUGUCGGAUUCUGGUGAAUCUGCGAAUUCUGCCAUGUAUCUC the figure was 1.05; with UAACAGGGGGCCACAGCAGGAGCGUUCACGUCGCAGCCCCUGUCAGAUUCUGGUGAGUCUGCGAAUCCAGCUGUAUAUCUC, 0.5.

In the case of UAACAGGGGGCCACAGCAGGAGCGUUCACGUCGCAGCCCCUGUCGGAUUCUGGUGGAUCCGCGAGUCCUGCUGUGUAUCUC, the self-cleavage was 0.

On to UAACAGGGGGCCACAGCAGGAGCGUUCACGUCGCAGCCCCUGUCGGAUUCUGGUGAAUCCGCGAAUUCUGCUGUAUAUCUC, for which the self-cleavage was determined as 1.06.

With UAACAGGGGGCCACAGCAGGAGCGUUCACGUCGCAGCCCCUGUCAGAUUCUGGUGAGUCGGCGAAUUCUGCUGUAUAUCUC, the self-cleavage came out at 0.21. For the variant UAACAGGGGGCCACAGCAGGAGCGUUCACGUCGCAGCCCCUGUCAGAUUCUGGUGAAUCUGCGAGUUCUGCUGUAUAUCCC, the self-cleavage is 0.23. With UAACAGGGGGCCACAGCAGGAGCGUUCACGUCGCAGCCCCUGUCUGACUCUGGUGGAUCUGCGAAUUUUGCUGUAUAUCUC the figure was 0.07. With UAACAGGGGGCCACAGCAGGAGCGUUCACGUCGCAGCCCCUGUCAGAUUCUGGUGAAUCUGCGAGUUCUGCUUUAUAUCUC the figure was 0.89; with UAACAGGGGGCCACAGCAGGAGCGUUCACGUCGCAGCCCCUGUCAGAUUCUGGUGAGUCUGCGUAUUCUGCUGUAUAUCGC, 0.36; with UAACAGGGGGCCACAGCAGGAGCGUUCACGUCGCAGCCCCUGUCGGAUUCUGGUGAAUCUGCGAAUUCUGUUGUAUAUCUC, 0.16. With UAACAGGGGGCCACAGCAGGAGCGUUCACGUCGCAGCCCCUGUCGGAUUCUGGUGAAUCUGCGAAUUCUGGUGUAUAUCUC, the self-cleavage turned out to be 0.07. Turning to UAACAGGGGGCCACAGCAGGAGCGUUCACGUCGCAGCCCCUGUCAGAUUCUGGUGAGUCUGCGAAUUCUGCUGUAUAACUC, the self-cleavage is 0.44. With UAACAGGGGGCCACAGCAGGAGCGUUCACGUCGCAGCCCCUGUCAGAUUCUGGUGAGUCUGCGAAUUCUGCUGUAUACCUC the figure was 0.69; with UAACAGGGGGCCACAGCAGGAGCGUUCACGUCGCAGCCCCUGUCAGGUUCUGGUGAAUCUGCGAACCCUGCUGUAUAUCUC, 0.52; with UAACAGGGGGCCACAGCAGGAGCGUUCACGUCGCAGCCCCUGUCAGAUUCUGGUGGAGCUGCGAAUUCUGCUGUAUAUCUC, 0.15. With UAACAGGGGGCCACAGCAGGAGCGUUCACGUCGCAGCCCCUGUCAGAUUCUGGUGAAUCUGCGUAUUCUGCUGUAUAUCAC the figure was 0.3.

Regarding UAACAGGGGGCCACAGCAGGAGCGUUCACGUCGCAGCCCCUGUCGGAUUCUGGUGAAUCUGCGAAUUCCGCUGUAUAUCUC, the self-cleavage was 0.3.

For UAACAGGGGGCCACAGCAGGAGCGUUCACGUCGCAGCCCCUGUCUGGUUCUGGCGAAUCUGCGAAUUCUGCUGUAUAUCUC, the self-cleavage is 0.13. UAACAGGGGGCCACAGCAGGAGCGUUCACGUCGCAGCCCCUGUCUGAUUCUGGAGAAUCUGCGAAUUCUGCCGUAUAUCUC: the self-cleavage is 0.28. With UAACAGGGGGCCACAGCAGGAGCGUUCACGUCGCAGCCCCUGUCUGAUUCUGGUGAAUCUGCGAAUUCUGGUGUAUAUCUC the figure was 0.16. In the case of UAACAGGGGGCCACAGCAGGAGCGUUCACGUCGCAGCCCCUGUCUGAUUCUGGUGAAUCUGCGAAUUCUGCUGCGUAUCUC, the self-cleavage was 0.48. With UAACAGGGGGCCACAGCAGGAGCGUUCACGUCGCAGCCCCUGUCGGAUUCCGGUGAAUCUGCGAAUUCCGCUGUAUACCUC the figure was 0.24; with UAACAGGGGGCCACAGCAGGAGCGUUCACGUCGCAGCCCCUGUCAGAUUCUGGUGCAUCUGCGAGUUCUGCUAUAUAUCUC, 0.18. Take UAACAGGGGGCCACAGCAGGAGCGUUCACGUCGCAGCCCCUGUCAGAUUCUGGUGAAUCUGCGGAUUCUGCUGUAUAGCUC: the self-cleavage came out at 0.6.

For UAACAGGGGGCCACAGCAGGAGCGUUCACGUCGCAGCCCCUGUCAGAUUCUGGUGAGCCUGCGAAUUCUGCUGUAAAUCUC, the self-cleavage worked out at 0.45.

In the case of UAACAGGGGGCCACAGCAGGAGCGUUCACGUCGCAGCCCCUGUCAGAUUCUGGUGUGUCUGCGAAUUCUGCUGUAUAUCUC, the self-cleavage turned out to be 0.21. With UAACAGGGGGCCACAGCAGGAGCGUUCACGUCGCAGCCCCUGUCAGAUUCUGGUGAAUCUGCGUAUUCCGCUGUAUAUCUC the figure was 0.19. As to UAACAGGGGGCCACAGCAGGAGCGUUCACGUCGCAGCCCCUGUCAGAUUCUGGUGAGUCUGCGAAUUCAGCUGUAAAUCUC, the self-cleavage was 0.36. Turning to UAACAGGGGGCCACAGCAGGAGCGUUCACGUCGCAGCCCCUGUCAGAUUCUGGUGAAUCUGCGAGUUCUGCAGUAUAUCUC, the self-cleavage was 0.25. With UAACAGGGGGCCACAGCAGGAGCGUUCACGUCGCAGCCCCUGUCAGAUUCUGGUGAGUCUGCGAAUUCUGCCUUAUAUCUC the figure was 0.67; with UAACAGGGGGCCACAGCAGGAGCGUUCACGUCGCAGCCCCUGUCUGAUUCUGGUGAAUCUGCGAAUUCAGCUGUAUUUCUC, 0.09; with UAACAGGGGGCCACAGCAGGAGCGUUCACGUCGCAGCCCCUGUCAGCUUCUGGUGAAUCUGCGAAUUCCACUGUAUAUCUC, 0.17.

With UAACAGGGGGCCACAGCAGGAGCGUUCACGUCGCAGCCCCUGUCGGUUUCUGGUGAAUCUGCGAAUUCCGCUGUAUAUCUC, the self-cleavage is 0.24. With UAACAGGGGGCCACAGCAGGAGCGUUCACGUCGCAGCCCCUGUCAGAUUCUGGUGAAUCUGCGAGCUCUGCUGCAUACCUC the figure was 0.1.

As to UAACAGGGGGCCACAGCAGGAGCGUUCACGUCGCAGCCCCUGUCAGAUUCUGGUGUAUCUGCGAAUUCUGCUGUACAUCUC, the self-cleavage is 0.38.

UAACAGGGGGCCACAGCAGGAGCGUUCACGUCGCAGCCCCUGUCAGUUUCUGGUGAAUCUGCGAAUUCUGCUGUACAUCUC: the self-cleavage was determined as 0.64. With UAACAGGGGGCCACAGCAGGAGCGUUCACGUCGCAGCCCCUGUCGGAUUCUGGUGAAUCUGCGAAUUCUGCUGUAUAUCAC the figure was 0.74; with UAACAGGGGGCCACAGCAGGAGCGUUCACGUCGCAGCCCCUGUCCGAUUCUGGUGAAUCUGCGAAUUCUGCUGUAUACCUC, 0.28.

Take UAACAGGGGGCCACAGCAGGAGCGUUCACGUCGCAGCCCCUGUCGGAUUCUGGUGAACCUGCGAAUUCUGCUGCACAUCUC: the self-cleavage was 0.06.

Regarding UAACAGGGGGCCACAGCAGGAGCGUUCACGUCGCAGCCCCUGUCAGAUUCUGGUGAAUCUGCGUAUUCAGCUGUAUACCUC, the self-cleavage stood at 0.48. With UAACAGGGGGCCACAGCAGGAGCGUUCACGUCGCAGCCCCUGUCGGAUUCUGGUGAAUCUGCGAGUUCAGCUGUAUAUCUA the figure was 0.04; with UAACAGGGGGCCACAGCAGGAGCGUUCACGUCGCAGCCCCUGUCAGAUUCUGGUGAAUCUGCGUAUUCUGCAGUGGAUCUC, 0.2; with UAACAGGGGGCCACAGCAGGAGCGUUCACGUCGCAGCCCCUGUCGGAUUCUGGUGAAUCUGCGAAUCCUGCUGUAUAUCUC, 0.56. Consider UAACAGGGGGCCACAGCAGGAGCGUUCACGUCGCUGCCCCUGUCAGAUUCUGGUGAAUCUGCGAAUUCUGCUGUAUAUCCC, for which the self-cleavage came out at 0.62. With UAACAGGGGGCCACAGCAGGAGCGUUCACGUCGCAGCCCCUGUCAGAUUCUGGUGGAUCUGCGGACUCAGCUGUACAUCUC the figure was 0.15; with UAACAGGGGGCCACAGCAGGAGCGUUCACGUCGCAGCCCCUGUCGGAUUCUGGUGAGUCUGCGAAUUCUGCUGUAUAUCUC, 0.4.

Values taken from the RNAGym collection of RNA variant scans (doi:10.1093/nar/gkz1192).
